PubChem BioAssay AID2675 (National Center for Advancing Translational Sciences (NCATS), 2010)
About 100 (0.036%) of roughly 280,000 compounds were called active. Inconclusive means that the source gave no clear call. Such entries were picked first, then a sample of the others. The call rests on the fitted dose curve; in most records, active means well fitted inhibition curve with a large enough effect in the signal ratio, with a control signal flat (not every such curve was filed as active); inconclusive means small, poorly fitted or top-dose-only effect, or effect the other way, or a change in a side signal; inactive means no such curve, though single readings can be large or run the other way; the % refers to the signal ratio. Potencies beside an inconclusive call are fits to weak or partial responses and may not hold up. “Side channel” marks fits to a control or component signal instead of the main read-out.

target: Muscleblind-like protein 1 (Homo sapiens) (UniProt Q9NR56); assay: qHTS Assay for Inhibitors of MBNL1-poly(CUG) RNA binding; details: TR-FRET MBNL1-His/biotin-(CUG)12 binding, 665/545 ratio; activity change, negative = inhibition: at 57.5 µM (top of the series)
Sequence of UniProt Q9NR56 (Q9NR56 whole entry, looked up): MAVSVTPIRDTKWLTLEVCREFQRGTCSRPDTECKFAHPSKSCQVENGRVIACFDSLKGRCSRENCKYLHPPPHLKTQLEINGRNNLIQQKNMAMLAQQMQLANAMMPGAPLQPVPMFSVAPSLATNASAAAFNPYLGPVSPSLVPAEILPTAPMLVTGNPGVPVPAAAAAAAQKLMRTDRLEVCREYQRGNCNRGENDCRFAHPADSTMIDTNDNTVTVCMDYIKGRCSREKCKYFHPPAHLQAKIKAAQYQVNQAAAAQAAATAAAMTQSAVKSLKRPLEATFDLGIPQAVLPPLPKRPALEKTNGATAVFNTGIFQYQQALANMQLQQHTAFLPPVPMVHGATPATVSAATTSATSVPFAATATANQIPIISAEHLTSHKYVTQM
Method in brief: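 Ratiometric TR-FRET (665 over 545 nm, excitation 340 nm) tracks disruption of MBNL1-His/biotin-(CUG)12 complex after 60 min at room temperature, with compounds at 92 nM to 58 uM final.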
On the % scale 0 is the no-effect control and ±100 the full control effect; potency means the concentration at half of the fitted maximal effect; tags describe the fitted curve by direction and shape or compound fluorescence and quenching.

SMILES	activity change, negative = inhibition	Potency
c1ccc2c(c1)ncn2Cc1nnc2sc(-c3ccncc3)nn12	inactive: 1.28%	
COc1ccc(C)cc1NC(=O)CSc1ccc(Cl)cc1		inconclusive: 31.6 µM [fluorescent, side channel, partial curve]
COc1ccc(CCNC(=O)Nc2cccc([N+](=O)[O-])c2)cc1OC		inconclusive: 15.8 µM [quencher, side channel, partial curve]
CCOC(=O)c1cc(C(=O)OCC)c2cccc(C)n2c1=O		inconclusive: 17.8 µM [quencher, side channel, partial curve]
O=C(NCCc1ccccc1)C1COc2ccccc2O1 (stereo unspecified)	inactive: -9.67%	
N#Cc1c2c(c(=S)n(-c3ccccc3)c1N)CCCC2		inconclusive: 15.8 µM [quencher, partial curve]
CCOc1cc(CN2CCN(CCOCCO)CC2)ccc1OC	inactive: -2.25%	
Cc1ccc2oc(=O)c3cc(C(=O)NCCN4CCN(C)CC4)sc3c2c1		inconclusive: 3.16 µM [quencher, side channel, full curve]
CC1=CC2=NC(=O)/C(=C/c3cccs3)C(=N)N2O1		inconclusive: 25.1 µM [quencher, side channel, partial curve]
CCn1nnc(NC(=O)c2ccc([N+](=O)[O-])o2)n1		inconclusive: 11.2 µM [quencher, partial curve]
O=C(NCC(=O)N1CCN(Cc2ccccc2)CC1)c1ccc(Br)o1	inactive: -2.9%	
COc1ccc(CC2(CO)CCN(Cc3cc4ccccc4o3)CC2)cc1	inactive: -3.8%	
O=C1/C(=C/c2cccs2)SC(=S)N1CC(=O)N1CCCCC1CCO (stereo unspecified)		inconclusive: 8.91 µM [quencher, side channel, partial curve]
CC(C)NC(=O)Cn1nc(C(F)(F)F)c2c1CCC2		inconclusive: 0.355 µM [fluorescent, side channel, full curve, poor fit]
Cc1cnc(NC(=O)CCc2ccccc2)s1	inactive: 1.64%	
CC(=O)Nc1ccc(N(C(=O)c2ccco2)C(C(=O)NC2CCCC2)c2ccc(N(C)C)cc2)cc1 (stereo unspecified)	inactive: -6.03%	
CS(=O)(=O)Nc1ccc(C2=NN(C(=O)c3ccco3)C(c3ccco3)C2)cc1 (stereo unspecified)		inconclusive: 31.6 µM [quencher, side channel, single point]
COc1cccc(-c2nnc(NC(=O)c3cccc(F)c3)o2)c1	inactive: 0.951%	
Cc1[nH]c2ccccc2c1CCNC(=O)c1ccc2c(c1[N+](=O)[O-])C(=O)c1ccccc1C2=O		inconclusive: 11.2 µM [quencher, side channel, partial curve]
O=C(CNC1=NCCC1)c1ccc(Cl)cc1		inconclusive: 0.1 µM [fluorescent, side channel, partial curve, poor fit]
COCCNc1ncnc2c1cnn2Cc1ccccc1Cl	inactive: 3.05%	
O=S(=O)(NC1c2cccc3cccc(c23)C1Sc1ncccn1)c1ccccc1 (stereo unspecified)	inactive: -3.87%	

SMILES	activity change, negative = inhibition	Potency
Cc1ccc(NC(=O)CCCSc2nc3ccccc3[nH]2)cc1	inactive: -0.0652%	
O=C(Nc1cc2c(cc1Cl)OCCO2)c1ccco1		inconclusive: 44.7 µM [quencher, side channel, single point]
Cc1ccc(NC(=O)c2ccc(F)c(S(=O)(=O)N3CCOCC3)c2)cc1F	inactive: -5.58%	
O=C(O)CSC(C(=O)Nc1ccc(C(F)(F)F)cc1)c1ccccc1 (stereo unspecified)		inconclusive: 35.5 µM [quencher, side channel, single point]
Cn1cnnc1Sc1ccc(S(C)(=O)=O)cc1[N+](=O)[O-]		inconclusive: 7.94 µM [quencher, side channel, partial curve]
CC1CN(C(=O)Nc2ccc3c(c2)OCO3)CC(C)O1 (stereo unspecified)		inconclusive: 5.62 µM [quencher, side channel, single point]
CCN1C(=S)N[C@@H](c2cccs2)C(C(=O)OC)=C1C		inactive
CSc1nc(-c2ccc(N(C)C)cc2)c(C#N)c(=O)n1C		inconclusive: 3.55 µM [quencher, side channel, single point]
O=C(Nc1ccc(F)c(Cl)c1)C1CCN(c2ncnc3c2nc2n3CCCCC2)CC1	inactive: -7.98%	
O=c1cc(-c2ccc([N+](=O)[O-])cc2)c2cc3c(cc2[nH]1)OCCO3		inconclusive: 39.8 µM [quencher, single point]
COc1cc(/C=C/c2ccc3cccc(O)c3n2)ccc1O	inactive: 34.2%	
CN(C)CCN1C(=O)C(O)=C(C(=O)c2cc3ccccc3o2)C1c1ccccn1 (stereo unspecified)		inconclusive: 35.5 µM [quencher, side channel, partial curve]
CCN1C(=O)c2cccc3c(S(=O)(=O)N(C(=O)c4cccnc4)c4ccc(OC)cc4)ccc1c23		inconclusive: 39.8 µM [quencher, single point]
COc1cc(/C=C2\CCC(C3CCCC3)C2=O)cc(OC)c1OC (stereo unspecified)	inactive: 5.51%	
CCN(c1ccccc1)S(=O)(=O)c1ccc2[nH]c(=O)c(=O)[nH]c2c1		inconclusive: 35.5 µM [fluorescent, side channel, single point]
Cc1ccc(C(=O)c2coc3c2C(=O)C(=O)c2ccccc2-3)cc1		inconclusive: 10 µM [quencher, side channel, partial curve]
COc1cc(/C=N/NC(=O)c2cc[n+]([O-])cc2)ccc1O		inconclusive: 25.1 µM [quencher, side channel, single point]
COc1ccc([N+](=O)[O-])cc1NC(=O)C(C)Sc1nc(C)c(C)c(C)n1 (stereo unspecified)		inconclusive: 12.6 µM [quencher, side channel, partial curve]
CCCNC(=O)COC(=O)c1cc2c(=O)n3ccccc3nc2s1		inconclusive: 7.94 µM [quencher, side channel, partial curve]
O=C(N/N=C/c1cccnc1)c1cccc(NC(=O)c2ccccc2Cl)c1		inconclusive: 28.2 µM [quencher, side channel, single point]
CC1CCN(S(=O)(=O)c2ccc(C(C)C)cc2)CC1	inactive: -5.47%	
O=C1NC2(CCCCCC2)C(=O)N1Cc1cccc([N+](=O)[O-])c1		inconclusive: 17.8 µM [quencher, partial curve]

SMILES	activity change, negative = inhibition	Potency
O=C(O)CC/C(=C\c1ccc(Cl)c([N+](=O)[O-])c1)c1nc2ccccc2s1		inconclusive: 17.8 µM [quencher, side channel, single point]
CC(C)(C)c1ccc(NC(=O)COc2ccc(-n3ccnc3)cc2)cc1	inactive: 6.88%	
O=C(NCCC1=CCCCC1)c1ccc(Cl)c([N+](=O)[O-])c1		inconclusive: 28.2 µM [quencher, side channel, single point]
COc1ccc(/C=C(/NC(=O)c2ccco2)C(=O)NCc2ccco2)cc1OC		inconclusive: 31.6 µM [quencher, side channel, single point]
Cc1ccc(S(=O)(=O)Oc2ccc(/C=N/N=C3/NC(=O)C(CC(=O)O)S3)cc2)cc1 (stereo unspecified)	inactive: 13.3%	
O=C(N/N=C(\Cc1ncc[nH]1)c1ccccc1)c1ccccc1	inactive: 4.29%	
O=C(COC(=O)c1cc([N+](=O)[O-])ccc1N1CCOCC1)Nc1ccc(Cl)cn1		inconclusive: 14.1 µM [quencher, side channel, partial curve]
CCc1ccccc1NC(=O)CCCSc1nc2ccccc2s1		inconclusive: 22.4 µM [fluorescent, side channel, partial curve]
CCCCc1ccc(-c2ccc(Br)cc2)nc1		inconclusive: 63.1 µM [inhibitor, single point]
CC1=C(C(=O)Nc2ccccc2)C(c2ccc3c(c2)OCO3)C2=C(CCCC2=O)N1 (stereo unspecified)	inactive: -9.97%	
NC(=S)c1ccc(C(N)=S)o1		inconclusive: 15.8 µM [quencher, side channel, partial curve]
CCOC(=O)/C=C/S(=O)(=O)c1ccc(NC(C)=O)cc1	inactive: -6.4%	
CC1(C)CC2CC(C)(CN2C(=O)c2ccc([N+](=O)[O-])cc2)C1 (stereo unspecified)		inconclusive: 31.6 µM [quencher, side channel, partial curve]
Cc1ccccc1Nc1nc(N)nc(CSc2nc3ccccc3c(=O)n2C)n1		inconclusive: 31.6 µM [fluorescent, side channel, single point]
O=C(c1ccco1)N1CCN(C(c2cccs2)c2sc3ncnn3c2O)CC1 (stereo unspecified)		inconclusive: 39.8 µM [quencher, side channel, single point]
O=C(N/N=C/c1ccc([N+](=O)[O-])s1)c1ccccc1Br		inconclusive: 12.6 µM [quencher, side channel, partial curve]
COC(=O)c1cc(Cc2ccc(N)c(C(=O)OC)c2)ccc1N	inactive: 4.89%	
Cc1ncc(CO)c(/C=N/NC(=O)c2ccc(O)cc2)c1O		inconclusive: 15.8 µM [quencher, side channel, single point]
CCc1oc2ccccc2c1C(=O)CCN1CCCCC1	inactive: 5.03%	
O=C(NCCCc1ccccc1)c1ccc([N+](=O)[O-])cc1Cl		inconclusive: 14.1 µM [quencher, side channel, partial curve]
CCN(C(=O)COC(=O)c1cc(=O)[nH]c2ccccc12)C1CCS(=O)(=O)C1 (stereo unspecified)		inconclusive: 4.47 µM [quencher, side channel, partial curve]
NC(=O)C1CCN(c2ccc(C(F)(F)F)cc2[N+](=O)[O-])CC1		inconclusive: 25.1 µM [quencher, side channel, partial curve]
